From PubChem BioAssay AID651820 (National Center for Advancing Translational Sciences (NCATS), 2012)
The campaign covered roughly 340,000 compounds. About 12,000 (3.5%) were called active. This list was built around the results that the source calls inconclusive (neither active nor inactive); the mix of calls is not that of the screen. The call rests on the fitted dose curve; in most records, active means well fitted inhibition curve with a large enough effect; inconclusive means small, poorly fitted or top-dose-only effect, or another doubt; inactive means no such curve, though single readings can be large or run the other way. Potencies of inconclusive entries are left out as doubtful fits.

experiment: qHTS Assay for Inhibitors of Hepatitis C Virus (HCV); conditions: Huh7.5.1 HCVcc-Cre (HCVcc is cell-culture hepatitis C virus) infection, luciferase reporter, 44 h; series mostly up to 41.8 µM
In short: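 Reporter virus HCVcc-Cre (~0.5 moi) infects cells exposed to compound; seeding density 1,000 cells/well with 4 h settling beforehand. Luminescence, 15 sec read, taken 44 h post-infection following a 15 min RT substrate incubation.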
Potency means the concentration at half of the fitted maximal effect; tags describe the fitted curve by direction and shape.

Compound | Potency
CN1CCN(CC(O)COc2ccccc2)CC1 (stereo not drawn) | inactive
CCCCC(=O)Nc1nnn(CCC)n1 | inactive
CC(=O)Nc1cccc(C(=O)OC(C)C(=O)N2CCc3ccccc32)c1 (stereo not drawn) | inconclusive [inhibitor, single point]
O=C(CC1N=C2c3ccccc3N=C(SCc3ccccc3Cl)N2C1=O)NCc1ccco1 (stereo not drawn) | inconclusive [inhibitor, single point]
C=CCn1c(SCC(=O)N(CCC)C2CCS(=O)(=O)C2)nnc1-c1ccccc1OC (stereo not drawn) | inactive
Cc1cccc(C)c1NC(=O)CN1C(=O)S/C(=C\c2cccn2-c2cccc(C(=O)O)c2)C1=O | inactive
CCn1c2nc(SCCN3CCOCC3)nnc2c2cc(C)cc(C)c21 | inactive
Nn1c(SCC(=O)Nc2ccccc2F)nc2ccccc2c1=O | inconclusive [inhibitor, partial curve]
Cc1cccc(C(=O)NNC2=C(C(=O)C(F)(F)F)CCC2)c1O | inactive
CCN(CC)CCNC(=O)c1cc(Sc2nnc(C)s2)nc2ccccc12 | inconclusive [inhibitor, partial curve]
CCOc1ccc(C2Nc3ccccc3C(CC)(CC)O2)cc1 (stereo not drawn) | inactive
CCCCC(CC)C(=O)Nc1ccc(S(=O)(=O)N2CCCC2)cc1 (stereo not drawn) | inconclusive [inhibitor, partial curve]
CC(SC1=NCCN1S(=O)(=O)c1ccccc1)c1ccccc1 (stereo not drawn) | inconclusive [inhibitor, partial curve]
Cn1c(=O)c2c(nc(SCCN3CCCCC3)n2Cc2ccc(Cl)cc2)n(C)c1=O | active: 35.5 µM
COc1ccc(/C=C/C(=O)Nc2ccccc2C)cc1S(=O)(=O)N1CCOCC1 | inconclusive [inhibitor, full curve]
CCOc1c2ccc(C(=O)NCc3ccc(C(F)(F)F)cc3C(F)(F)F)cc2nn1C | inconclusive [inhibitor, partial curve]
COc1ccc(Nc2nc(C)cc(C)c2C#N)c(OC)c1 | inconclusive [inhibitor, full curve]
Cc1ccc(OCc2nnc(SCC(=O)N3c4ccccc4Sc4ccc(Cl)cc43)o2)cc1 | inconclusive [inhibitor, partial curve]
COc1ccc2cc(C(=O)NCc3ccco3)c(=Nc3ccc(C(=O)O)cc3)oc2c1 | inconclusive [inhibitor, single point]
COc1ccccc1CCC(=O)Nc1ccc2c(c1)CN(Cc1ccc(C)o1)CC2 | inconclusive [inhibitor, partial curve]
CCC(=O)NCCc1c[nH]c2ccccc12 | inactive
NN(CCO)C(=S)Nc1ccc(Cl)cc1 | inactive
COc1ccc(-c2nnc(SCC(=O)NCc3ccco3)n2C)cc1 | inactive
Cc1cc2oc(=O)cc(-c3ccccc3)c2c(C)c1-c1ccc(O)cc1 | inconclusive [inhibitor, partial curve]

Compound | Potency
Cc1c(C(=O)NNC(=S)Nc2cccc(Cl)c2)nnn1-c1ccccc1 | inactive
Cc1ccc(NC(=O)c2ccc(NCCCN3CCC(C)CC3)c([N+](=O)[O-])c2)c(C)c1 | active: 11.2 µM
O=C(NN1CCOCC1)c1cc(-c2ccc(Br)cc2)nc2ccccc12 | inactive
CCOc1ccc(S(=O)(=O)N2CCN(C(=O)c3cc(S(=O)(=O)N4CCOCC4)ccc3C)CC2)cc1 | inactive
C#CCOCCOCCOCCNc1nc(N2CCOCC2)nc(N2CCN(C(=O)[C@H](C)n3cc(CCCN=C(N)N)nn3)CC2)n1 | inconclusive [inhibitor, single point]
CC1C/C(=N/NC(=O)c2ccc(CSc3nc4ccccc4[nH]3)cc2)CC(C)(C)C1 (stereo not drawn) | inactive
O=C(NCCOc1ccccc1F)c1cccc(S(=O)(=O)N2CCN(c3ccccc3)CC2)c1 | inconclusive [inhibitor, full curve, poor fit]
COc1ccc(NC(=O)C2CCCN(S(=O)(=O)c3ccc(Cl)cc3)C2)cc1OC (stereo not drawn) | inactive
CCOC(=O)c1c(Nc2ccccc2)sc(/C=C2\C=Nc3ccccc32)c1O | inconclusive [inhibitor, full curve]
O=C(Nc1ccc(Cl)cc1)N1CCc2ccccc2C1 | inactive
Cn1c(=O)[nH]c(=O)c2c1nc1n2CCCS1 | inconclusive [inhibitor, partial curve]
O=[N+]([O-])c1cccc(C=NN2CCCCCC2)c1 | inconclusive [inhibitor, single point]
CCOc1ccccc1Nc1nc(N)nc(CSc2nccc(C)n2)n1 | inconclusive [inhibitor, single point]
CN1CCN(c2nc(-c3ccccc3O)nc3ccccc23)CC1 | inconclusive [inhibitor, partial curve]
Cc1ccccc1NC(=O)c1ccc(CN2CCc3ccccc3C2)cc1 | inconclusive [inhibitor, partial curve]
CC(C)(C)NC(=O)C(c1cccs1)N(CC1CCCO1)C(=O)c1ccc(-c2ccccc2)[nH]1 (stereo not drawn) | inconclusive [inhibitor, single point]
Cc1nnc(SCC(=O)Nc2cc(-c3cc(C)c(C)cc3C)nn2-c2ccccc2)s1 | inconclusive [inhibitor, full curve, poor fit]
O=C(Nc1cc(Oc2ccc(Cl)cc2)cc([N+](=O)[O-])c1)c1ccco1 | active: 10 µM
COc1ccccc1/C=C/CN1CCCC(CCC(=O)NCc2ccccc2F)C1 (stereo not drawn) | inactive
C=C(c1ccccc1)c1ccccc1N | inactive
CC(C)CNC(=O)COc1ccc(Sc2ccc(OCC(=O)NCC(C)C)cc2)cc1 | inconclusive [inhibitor, partial curve]
CCC(C)NC(=O)c1cc2c(=O)[nH]c3ccc(C)cc3c2s1 (stereo not drawn) | inactive
O=S(=O)(NCCc1cn2ccccc2n1)c1ccc(-c2ccccc2)cc1 | inconclusive [inhibitor, single point]
COC(=O)CCC(=O)Nc1cccc([N+](=O)[O-])c1 | inactive
